The other results are listed elsewhere or left out.

The test concerns the target T1, OsWOX13 (Oryza sativa, UniProt Q5QMM3 1-267).
T1 sequence: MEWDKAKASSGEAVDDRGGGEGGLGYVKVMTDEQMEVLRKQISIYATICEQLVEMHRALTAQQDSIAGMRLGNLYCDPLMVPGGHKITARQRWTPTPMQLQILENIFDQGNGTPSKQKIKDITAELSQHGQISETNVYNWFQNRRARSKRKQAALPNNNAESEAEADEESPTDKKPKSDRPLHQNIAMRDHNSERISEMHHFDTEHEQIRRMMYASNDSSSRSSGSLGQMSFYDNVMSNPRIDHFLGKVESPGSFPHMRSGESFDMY
The experiment in a line: protein-binding microarray (RPBM); PBS, 2% BSA, 51.3 ng/ul salmon testes DNA, 50 uM zinc acetate, 200 nM TF, 25 C, 1 h; high values mean tight binding. The note with it: protein: recombinant; tags: N-terminal polyhistidine and DsRed monomer fusion (pET32a); label: CyDye5-dUTP incorporated in the synthesized complementary strand; 3' TTTTT single-stranded linker to array surface; dsDNA, one strand shown. In short, it runs like this:
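Using Ni–NTA, transcription factors fused N-terminally to polyhistidine and DsRed were purified after expression in E. coli BL21-CodonPlus. These were incubated at 200 nM with a blocked, double-stranded custom Agilent array for 1 h at 25 °C in a buffer containing 50 µM zinc acetate, and the array was washed. The binding signal is per-feature fluorescence intensity (arbitrary units) on an Axon 4000B scanner.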
Regarding “ACCATCGATTTAATTTGACTGTTGATCATAATAATATATCCGGAGTCACCTAGTGCAG”, the binding signal was 11200 fluorescence intensity (a.u.). As to “ATCAGATTTCTGATAGGACAGGACTAGAGGAACAGGCCGGCGGAGTCACCTAGTGCAG”, the binding signal was 3500 fluorescence intensity (a.u.).

Regarding “TTTTGATTTTGATTAAAGTCAAATTACTTTAAATATGACACGGAGTCACCTAGTGCAG”, the binding signal is 21800 fluorescence intensity (a.u.). For “TGAAGAACGTTACTCTAATTAGTAAAACTACCGTCCACGTCGGAGTCACCTAGTGCAG”, the binding signal is 4040 fluorescence intensity (a.u.). As to “ATGGTGATTGGGAGGGTGAATCAGAGTGACTAAAAGAAATCGGAGTCACCTAGTGCAG”, the binding signal was 23300 fluorescence intensity (a.u.). “ATTATTAACACAAATTATGATTTTGATGATCCTCGTGGATCGGAGTCACCTAGTGCAG”: the binding signal is 34300 fluorescence intensity (a.u.).

On to “AATAATAGAGGAAATTATTTTGGAATGTTACTCATGATTTCGGAGTCACCTAGTGCAG”, for which the binding signal was 8020 fluorescence intensity (a.u.). As for “ACAATTAATCACACGTACCCTAGCCAGCTTGCTAATAAACCGGAGTCACCTAGTGCAG”, the binding signal is 3220 fluorescence intensity (a.u.). In the case of “CTTAATTACGAAAAGGCCATACTGGGCCTGTACCTGCATCCGGAGTCACCTAGTGCAG” it was 24800 fluorescence intensity (a.u.). In the case of “TGAATCATGACAAATTTGCTTACAATTCGTTGCTGTAGTGCGGAGTCACCTAGTGCAG” it was 4180 fluorescence intensity (a.u.); in that of “TCAGTTTTCCCGTTGTTGATTGCGATGATCCAGCCATCTACGGAGTCACCTAGTGCAG”, 9040 fluorescence intensity (a.u.); in that of “TCAGATGGAAGTGTGATAGATCGTCGGTGGTGTGGGGAGGCGGAGTCACCTAGTGCAG”, 3990 fluorescence intensity (a.u.).

For “TTAGTCTTTAATGTTTCAATCTGTCCATATTAGTCCTTCACGGAGTCACCTAGTGCAG”, the binding signal was 3540 fluorescence intensity (a.u.).

With “ATAAATTGTACTTCAACATTTGTAACATGTTGATAAATAACGGAGTCACCTAGTGCAG”, the binding signal is 4710 fluorescence intensity (a.u.). In the case of “CATTTTGATTACAGCTCGAACAAAGCAGTACAATGCTAAACGGAGTCACCTAGTGCAG”, the binding signal is 7470 fluorescence intensity (a.u.). On to “CTATTACTAGTAATTAATTTATACAAGATTTTGACTTCTCCGGAGTCACCTAGTGCAG”, for which the binding signal is 12900 fluorescence intensity (a.u.). In the case of “AACTAATTACAGAATCCGACAGTAAACCGCGAGACGAATTCGGAGTCACCTAGTGCAG”, the binding signal is 15700 fluorescence intensity (a.u.). Turning to “CGAAAATGATTTGGTACCGTGAGGTACCAGTACCTCGAGACGGAGTCACCTAGTGCAG”, the binding signal is 10000 fluorescence intensity (a.u.). As for “GATAAATTTGGCCATTTTCTTCACTACCAAAATTTTGATTCGGAGTCACCTAGTGCAG”, the binding signal is 9000 fluorescence intensity (a.u.). With “ATTTAATTGTTTAAATGATAATGTGCAGTCAACATAGTAGCGGAGTCACCTAGTGCAG”, the binding signal was 47400 fluorescence intensity (a.u.). Regarding “GTTGTAAATGTACATGATATATAAATTGTTGAGATCAAAGCGGAGTCACCTAGTGCAG”, the binding signal is 5050 fluorescence intensity (a.u.). In the case of “GTGGGGTGGGATTGGAATTAGGAAATAAATGAAGGGTTAACGGAGTCACCTAGTGCAG” it was 9930 fluorescence intensity (a.u.); in that of “GTAAATTTGGTGGTCTAATCCTGCCACATGAATATTACGACGGAGTCACCTAGTGCAG”, 4070 fluorescence intensity (a.u.); in that of “CAATTAATTAGGAGGCCGGTCAGCTCGATCATATCGCAGGCGGAGTCACCTAGTGCAG”, 30500 fluorescence intensity (a.u.).

On to “CAAATTTTAGCAAGTAATTATGAAATCTTGCCAAATTTTGCGGAGTCACCTAGTGCAG”, for which the binding signal is 3520 fluorescence intensity (a.u.). Consider “GCCTTGATTTATGGTGTTGCATGCAGCAATGTTATGCAGCCGGAGTCACCTAGTGCAG”, for which the binding signal is 41100 fluorescence intensity (a.u.). As for “ACTGTAAATTAATTTGGTGTGAGCCTAGCAGGAGAGGGTGCGGAGTCACCTAGTGCAG”, the binding signal is 36500 fluorescence intensity (a.u.).

For the sequence “CCCTTGACAGCACAGAGGCAACAGCAAAACACACTCTCATCGGAGTCACCTAGTGCAG”, the binding signal was 6340 fluorescence intensity (a.u.). Turning to “CTAAATTAGATACCGCTACAGTAAACATTTGCTAATGATACGGAGTCACCTAGTGCAG”, the binding signal is 15800 fluorescence intensity (a.u.).

Consider “AGTATGTGTTGATTATCTCAATTTTAAGGGAAGATATAACCGGAGTCACCTAGTGCAG”, for which the binding signal was 9990 fluorescence intensity (a.u.). As to “GGGAATATTAGTGGGATGGGGATGAGGAATTGAGGAAGAACGGAGTCACCTAGTGCAG”, the binding signal was 4410 fluorescence intensity (a.u.). On to “ACTTCAGAAATTGACAAAGATAACATCGTCCTTGTCAAGGCGGAGTCACCTAGTGCAG”, for which the binding signal is 11100 fluorescence intensity (a.u.). With “TCTTATGTGATCAATCAAATTCAGATACCATATGATGTCTCGGAGTCACCTAGTGCAG”, the binding signal is 12600 fluorescence intensity (a.u.). For “GGGTTTCAATCATTTAGGTGGACGTCCACTCATTTATTGCCGGAGTCACCTAGTGCAG”, the binding signal was 16200 fluorescence intensity (a.u.).

“ATGTGATGAAATCTGCTTGATTGCTGTTAACATTCATTCCCGGAGTCACCTAGTGCAG”: the binding signal is 31300 fluorescence intensity (a.u.). The same measure for “ACGAAATGCGGTGCTTCCTGTGATTGGCCTGTCCATTCTCCGGAGTCACCTAGTGCAG”: 4370 fluorescence intensity (a.u.); for “TCCAATTTGTCGTGTCAATTCTGAGTTCTTGGCCCATTCACGGAGTCACCTAGTGCAG”: 3630 fluorescence intensity (a.u.); for “ATTATAATAAACTGATATAAAATAAGCTGATAGTTCTTTGCGGAGTCACCTAGTGCAG”: 5180 fluorescence intensity (a.u.). Turning to “AATAAAACTTACATGAGTTAATTGAGTGAGAAATTAATTCCGGAGTCACCTAGTGCAG”, the binding signal was 4550 fluorescence intensity (a.u.). Regarding “GAAGATGATTGTTAAGTGGAAGTATAGAACTGAAACTTTCCGGAGTCACCTAGTGCAG”, the binding signal was 10700 fluorescence intensity (a.u.). In the case of “ATTTGTCTATTGTGATAGATGACATGGATGTAAATGATAGCGGAGTCACCTAGTGCAG” it was 5660 fluorescence intensity (a.u.); in that of “CCAATGATTTGGCTTCAAACCAAAATCACCAGATACACTGCGGAGTCACCTAGTGCAG”, 16800 fluorescence intensity (a.u.). The same measure for “TGATTGGTAATCAATCAATTATTATCATATACTCGCACTGCGGAGTCACCTAGTGCAG”: 62300 fluorescence intensity (a.u.). As for “GATAGATGATATACCCGTTAACAATGAGACGTTTGTGGAGCGGAGTCACCTAGTGCAG”, the binding signal was 3270 fluorescence intensity (a.u.). The same measure for “ATCTCCTTGATTGCCACATCAACAGAACCGCGAACCATATCGGAGTCACCTAGTGCAG”: 32100 fluorescence intensity (a.u.); for “GTTAATTAGTTAACGACCAATCGAGCCTACTAGTATAAATCGGAGTCACCTAGTGCAG”: 18000 fluorescence intensity (a.u.); for “TTTTATGTCTGTCTGATTTCATTCTATTTCATGGTAGGTTCGGAGTCACCTAGTGCAG”: 3360 fluorescence intensity (a.u.). Take “TAAAATTAAATGGATGAGAGGATGAGAGTAATCTAGTAAACGGAGTCACCTAGTGCAG”: the binding signal is 15900 fluorescence intensity (a.u.). The same measure for “CATGATTGTACGGCGGAGTGAAGCCTCCCTCATCACGGTGCGGAGTCACCTAGTGCAG”: 37800 fluorescence intensity (a.u.); for “TTGATTTGACAATGTGGTGCTACAATAAACATTTGCTAATCGGAGTCACCTAGTGCAG”: 33300 fluorescence intensity (a.u.). Turning to “TGCTAATTTGGTTGTTGCGGTCAACTTTCCTAGCTGGTCACGGAGTCACCTAGTGCAG”, the binding signal was 17100 fluorescence intensity (a.u.). Regarding “TGATAATAATCTGTTCAATAATTTATCTTAAACAGGGCCTCGGAGTCACCTAGTGCAG”, the binding signal was 11200 fluorescence intensity (a.u.).

As to “CCAAAATTAGCTTCGGTCGGTACAAACACCAGAATTCAGCCGGAGTCACCTAGTGCAG”, the binding signal was 3710 fluorescence intensity (a.u.). As for “ACTCCTGACTTGATTGGCAGTGAGTTGCTCATCTGCCTAGCGGAGTCACCTAGTGCAG”, the binding signal was 40300 fluorescence intensity (a.u.).

(Values after paper PMC7819943, “Rice protein-binding microarrays: a tool to detect cis-acting elements near promoter regions in rice”.)
